# According to the supplement of paper PMC11417369:
# ± gives the standard deviation of the averaged measurements. This is one part of the list.
# System: PfAP2-G AP2 domain (GST-tagged)
# Experiment: gcPBM binding intensity (ln(normalized median fluorescence intensity)); higher = stronger DNA binding
# Outline: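 Plasmodium falciparum DNA-binding domains carrying a GST tag were expressed in E. coli and applied for 1 h, at about 25 μg on average, to an Agilent 4 × 180k array. The array held primer-extended double-stranded 36-bp intergenic genomic probes together with negative controls, and binding took place in 1× PBS with 1% milk, 0.2 mg/ml BSA, 0.5% salmon testes DNA and 0.03% Triton X-100. An Alexa488 anti-GST antibody detected bound protein, and the array was scanned at 488 nm. Binding intensity is taken as the highest Masliner-normalised natural-log median intensity across replicate spots of either probe orientation.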
row,Sequence,gcPBM binding intensity (ln)
1,TTTTTAATTTATTGTGTGCACACAACTATGAGTTTT,10.6 ± 0.47
2,ATATGATATATATTCGGTACACATATATATAAAGAG [XGTACX_site430],11.2 ± 0.71
3,TTTTCTAAAGTAAGTTAAGATATGCAAAAAAAAGAA [GTGCAC_negctrl_site242],10.1 ± 0.26
4,TATTTTTTTTTTTAATGTACAAACAAATTATGTTGG [XGTACX_site2873],10.8 ± 0.57
5,ATTTTTTTTATGAGGTGTACTCATATAATAACTACA [XGTACX_site5074],11.6 ± 0.84
6,ATGAACTATATTAAATCACACATTATCATTTTATAT [CACACA_site4989],9.81 ± 0.085
7,AATAAAAATTGGTAGGCACACATGGAACTATTAAAA [CACACA_site1257],10.35 ± 0.078
8,TATAAAAGGTAAGAGTGTACAAGTAAAAAATTTTTA [XGTACX_site771],11.2 ± 0.7
9,TATATATTTTAAAATAGTACATATTATATAACCCAT [XGTACX_site2194],11.2 ± 0.71
10,TATCCCTTAGAATACACACCCATATGAGCGTGAACT [CACACA_site2951],10.1 ± 0.11
11,TCGTATATGGATTTTGCACACAATTATAATTTAAAT [CACACA_site868],10.16 ± 0.057
12,ATATATATATATATATGTACACATTAATGTTTTTTT [XGTACX_site167],11.4 ± 0.95
13,AAAATAAGAAATTGAAAAATTGAAAACAAAATTAAA [CACACA_negctrl_site1285],9.635 ± 0.092
14,TAAAAAATAAAAAAAGCACACACATATATATATATA [CACACA_site8567],10.1 ± 0.53
15,TAATAAAACATATATACACACATTATAAATACATAT [CACACA_site5014],10 ± 0.13
16,ACTACTCCATTAAGTAGTACACAAAAAAAAAAAATA [XGTACX_site7031],11.8 ± 1.1
17,TTACAAATGTTTTACACACACATAATTGTATCAATT [CACACA_site6147],10.05 ± 0.071
18,CCATTTTAAATATGCACACAGATGCACTAACCCATT [CACACA_site1883],10.4 ± 0.3
19,TATAAATAAAAACACACACACATATATATATATATA [CACACA_site2319],10.1 ± 0.47
20,GTTTGTAAATATTTTACACACATATATATATATATA [CACACA_site1075],10.1 ± 0.37
21,ATATCCTTAAAAGATACACACATATGAATATTTTGT [CACACA_site3847],9.92 ± 0.014
22,TTTATACTTGTAAATGCACACATAAGATGCGACTAA [CACACA_site8662],10.2 ± 0.28
23,ATACTTTTAAATTGATGTACTTTATTTATAAGGTGA [XGTACX_site6746],11.3 ± 0.91

row,Sequence,gcPBM binding intensity (ln)
1,TTGATTACTAGAAATGCACACACTGATAAAATAAGG [CACACA_site4134],10.4 ± 0.23
2,TTGCTCACAAGAAGCACACAAAAAAAGAAAAAAAAA [CACACA_site4047],10 ± 0.36
3,ATTATAGACACGCGCACACACAACAAAAAAAAAAAA [CACACA_site9180],10.5 ± 0.67
4,TTGGGGTATCTTCCTATGCACACTTGTTATGTACTA [CACACA_site831],11.1 ± 0.65
5,GAAAATTTCTTATTTTGTACACACAATAAATATTCA [XGTACX_site3267],11 ± 0.69
6,TTCACAAAATATTATTGTACATTAAAATATTTATAT [XGTACX_site2535],10.9 ± 0.45
7,TATAAAACGGATGAACAACAAATCATATGGCACAAA [TGCATGCA_negctrl_site608],10.23 ± 0.099
8,TACATGATATATCACACACACATATAAATATATATA [CACACA_site2831],9.815 ± 0.007
9,TTATATATTTATTTATGTACATATTTTTTTATTATA [XGTACX_site6115],11.4 ± 0.72
10,TAAATATGTATTCATACATGCACATATATATATATA [TGCATGCA_site584],10.4 ± 0.76
11,GTTTTTTTATTTCATCGTACAAAAAAGAAGGCTTTA [XGTACX_site5291],10.7 ± 0.62
12,GGTGTTAAAAAATACACACACAAAAAAAAAAAAAAA [CACACA_site138],9.95 ± 0.51
13,GGTAAGTACGACTTGACACACATACCCATATATATA [CACACA_site4837],11.1 ± 0.74
14,ACAGTATCTGGTAGCTGTACGAGTCGTAGAGTGCAG [XGTACX_site2015],11.2 ± 0.67
15,GCGAAATATTATTATAGTATACAAATACTTCTATGA [CACACA_negctrl_site197],9.91 ± 0.099
16,TTTTTTTAATTTGGTTGTACTTAAAAAAAAAACAGA [XGTACX_site5788],11.5 ± 1.1
17,TTTTTTATTATATAATTGTATATAAAATTATAATTT [GTGCAC_negctrl_site733],9.89 ± 0.13
18,TACCTAGGATTAAAGTGTCCACATAATTTAAATAAT [XGTACX_site6736],11.2 ± 0.54
19,TTCTTCTGTTTTATTACACACCATTTTGTGGATACA [CACACA_site5181],10.3 ± 0.16
20,TATATAAATAGACACACACACATATAAATATAAATA [CACACA_site6503],10.1 ± 0.2
21,ATTCATCTATTTTGTAGTACTAAATATATATCTACT [XGTACX_site8790],11.2 ± 0.76
22,AATAAACATATATACACACACAAAAAAAAAAACATA [CACACA_site424],10.1 ± 0.13
23,TAGATGTATGTACATACACACATATATAAATAAATA [CACACA_site1788],11.2 ± 0.87

row,Sequence,gcPBM binding intensity (ln)
1,TAACTTGAATGGATATGTACATATATATATATATAT [XGTACX_site5990],11.1 ± 0.49
2,TATAGATACAGATACACACACACACCGACATATATA [CACACA_site5832],10.1 ± 0.18
3,TATAACAAGTTATAAAGTACAAATGTTGAATTTTAT [XGTACX_site4673],10.9 ± 0.69
4,TCGGGAGGGGGGAAGCGTACATATATAAAATTATTA [XGTACX_site4683],11.7 ± 0.76
5,TAAAAATTAATATAAACACACAAAAATTAATAAATA [CACACA_site381],9.73 ± 0.22
6,GAATGTATATTCATGTATTTATTATTATTATTATTA [XGTACX_negctrl_site156],9.535 ± 0.092
7,ATATGGCTAAAAGTTGCACACACACTAATAAAAAAA [CACACA_site9082],10.4 ± 0.48
8,TATGTATTTATATTAACACACAAAAAAAAAAAAAAA [CACACA_site5070],9.82 ± 0.52
9,ATTATTTTACTAAAAGATATTCCTTTTTTTTGTACT [CACACA_negctrl_site998],9.94 ± 0.26
10,ATATATATATTTTGGTAGCACCTCCTTTTTTTTTTT,9.88 ± 0.12
11,ATATGCCTAATAAAATGTACGTTTGTTTTATTTATT [XGTACX_site3833],11 ± 0.49
12,TGTATACCTTAATATACACACATACAGATATATATA [CACACA_site4860],9.97 ± 0.18
13,CGATTTTTTTTTTATTGTACTTGCTCGCATGCAATA [XGTACX_site4727],11.2 ± 0.75
14,TTATATGTATATATATGTATATATATATATATATAG [TGCATGCA_negctrl_site461],9.49 ± 0.14
15,TACAATCTTTCATTATGTACTTAACATTTTTTCTGT [XGTACX_site8752],11.1 ± 0.54
16,AACAGGTCATAATTTACACACTATATATCTTATTAT [CACACA_site6461],10.3 ± 0.25
17,TTCATAAGAAGGAACTGTACATATTTTTCATTTTTT [XGTACX_site6770],11.2 ± 0.68
18,ACAAAAGGGGAATACACACACATATATAAATAAATA [CACACA_site7111],10.2 ± 0.28
19,CATATTTTTATGAGATGTACAATAAGAAATATGTAA [XGTACX_site2389],11.1 ± 0.7
20,TGTTTTATTTAGAAGGTGCACATTAATATTAAATAA,10.6 ± 0.7
21,ATATGCATTTTTATACGTACATATTTCTTTTCGTTA [XGTACX_site1497],11.5 ± 0.88
22,ATTTATTTATATATATTATTTGTTTTAATTTACTTA [XGTACX_negctrl_site246],9.49 ± 0.21
23,TATTGTTGTCTTTACACATGCAACAAAAGAAGAAAA [TGCATGCA_site911],10.2 ± 0.29

row,Sequence,gcPBM binding intensity (ln)
1,TTATCCTTGTAACAATGTACACATTATTTAATACTT [XGTACX_site1830],11.3 ± 0.62
2,TCGTGAATGATTTAAGTACACACCGGTATTTATTCA [CACACA_site1564],11.2 ± 0.71
3,GCATAAACGGATAATTAATTATATTATATTATATCA [CACACA_negctrl_site1519],9.855 ± 0.049
4,CATACAGATGGACACACACACACACCCACAGACAAA [CACACA_site4431],11.2 ± 0.93
5,TTTTTTTTTTGATGCACACACCTGAACGAGTTAATA [CACACA_site4329],10.3 ± 0.37
6,TATATATAGCATATTTCACACACACCGAATGAATAT [CACACA_site9182],9.965 ± 0.035
7,TTTCTTGGGAGACATGCATGTACCAGAACAAAATAA [TGCATGCA_site272],10.9 ± 0.64
8,TATTCTAATATTTATACACACATAACTTTGATAAAT [CACACA_site6418],9.97 ± 0.11
9,TACAAAATAGTTTACACACACATATATATACATATA [CACACA_site2615],10.1 ± 0.33
10,TTTATTTTTATGGTCACACATATTTTTAAAACTATA [CACACA_site4372],11.3 ± 0.88
11,TTTTTTTTTTTATATACTGGAAATATATTTAATTTA [GTGCAC_negctrl_site250],9.83 ± 0.27
12,TAAAAACAAAAATGCACACATAATAAGCATATGTAT [CACACA_site3469],9.82 ± 0.071
13,CACCCATAGAAACACACACACGCATAAAAAAAAAAA [CACACA_site1513],10.2 ± 0.43
14,TATGTTAATCCTATTTGTACATATAATCGAATTAAA [XGTACX_site7090],10.8 ± 0.57
15,GACGACTATATTAATTGTACTCAATTTAAGCATAAT [XGTACX_site2750],11.3 ± 0.95
16,GAAAGGAAAAGTTGAACACACAAAGTAAACTATAAG [CACACA_site3535],10.13 ± 0.064
17,TAATTATAAAAATAAAACAACCAAATTTGTTATATA [CACACA_negctrl_site750],9.95 ± 0.057
18,TAATTTATAAATAATTGTACATAGTTTATTTAGATT [XGTACX_site4599],10.9 ± 0.43
19,ATATATATAAAATAAAGTACCCGTAAAACCTATATG [XGTACX_site6937],11.3 ± 0.84
20,AAAAAAAAAAAAAAAAAATAATAAAAAATAAAAAAA [GTGCAC_negctrl_site341],10.2 ± 0.35
